In PMC6919601, “Identification of Plasmodium dipeptidyl aminopeptidase allosteric inhibitors by high throughput screening” (PLoS ONE, 2019):
In all, about 110,000 compounds went through this assay and about 230 (0.21%) showed an effect of 50% or more. Some of the results follow.

Each molecule was assayed against DPAP1 (Plasmodium falciparum, UniProt Q8IIJ9) (assay: primary screen, percent inhibition; read by cleavage of a fluorogenic dipeptide substrate; higher = more effect of the substance).
Design: species or system P. falciparum D10 trophozoite lysates; single well
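Also: 30 min substrate incubation versus DMSO and 10 µM JCP410 controls.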

Sequence of DPAP1 (Q8IIJ9 whole entry, looked up): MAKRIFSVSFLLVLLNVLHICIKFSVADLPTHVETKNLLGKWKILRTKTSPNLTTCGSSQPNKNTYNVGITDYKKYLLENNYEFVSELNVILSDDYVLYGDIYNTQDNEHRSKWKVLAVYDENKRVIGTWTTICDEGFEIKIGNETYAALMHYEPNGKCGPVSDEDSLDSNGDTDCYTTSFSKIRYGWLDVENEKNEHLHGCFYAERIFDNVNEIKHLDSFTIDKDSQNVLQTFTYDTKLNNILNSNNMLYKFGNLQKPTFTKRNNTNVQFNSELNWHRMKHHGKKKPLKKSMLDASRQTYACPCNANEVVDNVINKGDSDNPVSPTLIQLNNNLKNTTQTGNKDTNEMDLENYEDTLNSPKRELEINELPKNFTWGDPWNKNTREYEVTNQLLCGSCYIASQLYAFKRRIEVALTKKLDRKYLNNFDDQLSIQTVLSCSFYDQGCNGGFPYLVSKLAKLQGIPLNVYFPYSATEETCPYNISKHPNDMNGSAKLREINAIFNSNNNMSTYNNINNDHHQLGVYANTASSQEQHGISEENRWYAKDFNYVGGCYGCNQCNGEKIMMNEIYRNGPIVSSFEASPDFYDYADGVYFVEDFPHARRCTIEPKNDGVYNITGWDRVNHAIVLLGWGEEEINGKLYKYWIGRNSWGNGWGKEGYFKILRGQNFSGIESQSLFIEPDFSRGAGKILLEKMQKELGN

SMILES	% Inhibition @ 10 uM [%]
Cc1cccc(OCCSc2nc3c(N)nc(N)nc3[nH]2)c1	-3.09
NC(=O)c1ccc(NS(=O)(=O)c2cc(Cl)ccc2Cl)cc1	-1.11
CC1=CN2C(=N)/C(=C/c3ccc(SCc4ccc(Cl)cc4)o3)C(=O)N=C2S1	7.66
COc1ccc(C(=O)c2c[nH]c3ccccc23)cc1	-1.86
CCOC(=O)c1cc(C)n(CC2CCC(C(=O)Nc3cc(C)ccn3)CC2)c1C (centres unmarked)	-0.767
OCCN1CCN(CCCc2ccccc2)CC1	-0.0494
Oc1ccccc1-c1cc(-c2ccc(F)cc2)[nH]n1	-2.04
COc1ccc(C2C(C(=O)N3CCN(c4ccccn4)CC3)c3ccccc3C(=O)N2C)cc1 (centres unmarked)	2.06
Cc1ccccc1NC(=O)CN1CCCCC1	-2.73
O=C(NCCCc1ccccc1)C1CCN(c2nnc(N3CCCC3=O)s2)CC1	5.42
COC(=O)c1ccc(/C=c2/sc3nc(=O)c(Cc4ccc(F)cc4)nn3c2=O)cc1	4.51
CC(C)(C)C(=O)NCCCc1nc2ccccc2n1CC(=O)c1ccccc1	-0.58
C=CCOc1ccc(CNc2nccs2)cc1OC	-1.61
CCN1CCN(Cc2ccc(C(F)(F)F)cc2)CC1	1.55
CS(=O)(=O)N(CC(=O)N1CCN(Cc2ccccc2)CC1)c1cccc(C(F)(F)F)c1	-3.75
COc1ccc(NS(=O)(=O)c2cccc(C(=O)Nc3ccccc3C)c2)cc1	-1.74
CC(C)c1ccc(N(CC(=O)Nc2cccnc2)S(=O)(=O)c2ccccc2)cc1	-8.18
CC(C)CC(NC(=O)C1CCCCC1)C(=O)NC(CCN(C)C)Cc1ccccc1 (centres unmarked)	0.505
O=C1N/C(=C\c2ccc(F)cc2)C(=O)c2ccccc21	-0.292
O=C(CCCOc1ccc(Cl)cc1Cl)Nc1nccs1	4.57
CC1CCN(c2nnc(-c3cccs3)c3ccccc23)CC1	3.47
O=C(c1sc2cccc(Cl)c2c1Cl)N(Cc1cccs1)C1CCS(=O)(=O)C1 (centres unmarked)	-5.01
Fc1cnc(N2CCOCC2)nc1N1CCOCC1	1.51
COc1ccccc1C(=O)Nc1ccc(NC(=O)C(F)(F)F)cc1	4.26
CN1CCN(C(=O)c2ccc(-n3nc(C(F)(F)F)c4c3CCCC4)cc2)CC1	-1.27
Oc1ncnc2[nH]c(N3CCOCC3)nc12	-6.08

SMILES	% Inhibition @ 10 uM [%]
O=C(O)CNC(=O)/C(=C/c1ccc(Cl)cc1)NC(=O)c1ccco1	9.87
O=C(Cn1ncc2c3ccccc3n(Cc3ccc(F)cc3)c2c1=O)N1CCCCCC1	1.8
Cc1ccc(NC(=O)/C=C/C(N)=O)cc1	-2.32
c1cnc2c(c1)NCCS2	6.13
CCOc1ccc(CCNC(=O)c2ccc3c(c2)ncn3C2CCCC2)cc1OCC	2.05
COc1ccc(S(=O)(=O)N2CC=C(C(=O)NC3CCCC3)CC2)cc1	3.34
O=c1oc2c(-c3ccccc3Cl)cc(O)cc2s1	-4.8
O=C(CCNS(=O)(=O)c1ccc2nc(O)ccc2c1)NC1CCCC1	1.93
COc1nc(C)nc(NC(=O)NS(=O)(=O)Nc2cc([N+](=O)[O-])ccc2C)n1	-8.49
Fc1ccc(N2CCN(C3C4CC5CC(C4)CC3C5)CC2)cc1 (centres unmarked)	1.29
Cn1c2c(c(=O)n(C)c1=O)C(c1ccc(F)cc1)C(C#N)=C(N)O2 (centres unmarked)	-3.65
CCOc1ccccc1/C=C(\C#N)c1nc(-c2ccc(OC)cc2)cs1	2.56
Cc1ccc(/C=C2\N=C(c3cc(Cl)ccc3Cl)OC2=O)o1	-0.48
CCOc1ccc(-c2csc(Nc3ccc(F)cc3)n2)cc1[N+](=O)[O-]	4.12
CCn1cc(CCCC(=O)NC2CCCC2)c2ccccc21	-6.99
O=[N+]([O-])c1cccc(CN2CCN(c3ccccc3)CC2)c1	-0.197
CCOC(=O)C1=C(C)N=c2s/c(=C\c3ccc(O)cc3)c(=O)n2C1c1ccc(Cl)cc1 (centres unmarked)	-3.44
CCOC(=O)C1=C(C)N=c2s/c(=C/C=C\c3ccccc3)c(=O)n2C1c1cccs1 (centres unmarked)	1.25
OCc1cccc[n+]1Cc1ccccc1	2.7
CCCC(=O)Nc1c2c(nn1-c1ccc(F)cc1)CS(=O)(=O)C2	-1.91
CCc1ccc(-n2nnc(-c3nsc(NC(=O)c4ccccc4C)n3)c2C)cc1	-0.656
CC(C)NC(=O)Cc1ccc(-n2c(-c3ccccc3)nc3cccnc32)cc1	3.64
Cc1noc(C)c1S(=O)(=O)N1CCN(C)CC1	1.72
CCCCNC(=O)NC(C)C12CC3CC(CC(C3)C1)C2 (centres unmarked)	-2.55
Cc1oc(-c2ccccc2F)nc1CSCC(=O)NCc1ccccc1Cl	0.689
CCC(=O)N1CC(=O)Nc2ccc(Br)cc2C1c1ccccc1 (centres unmarked)	-3.48

SMILES	% Inhibition @ 10 uM [%]
CCc1c2c(n(C)c1-c1ccccc1)C(c1ccccc1)Oc1ccccc1-2 (centres unmarked)	-3.63
CCN(Cc1ccccc1)S(=O)(=O)c1c(C)cc(C)cc1C	-3.27
Cc1noc(C)c1S(=O)(=O)N1CCCC(C(=O)NC2CCCCCC2)C1 (centres unmarked)	-4.69
CCc1ccc(-n2nnc(-c3nc(-c4ccncc4)no3)c2N)cc1	3.73
COc1ccc(NC(=O)NC23CC4CC(CC(C4)C2)C3)c(C)c1	2.92
Cc1cc(C(F)F)n2ncc(C(=O)NCCc3ccc(Cl)cc3)c2n1	-2.75
CCn1c(SCCc2ccccc2)nc2c1c(=O)[nH]c(=O)n2C	0.851
CC1CCc2c(sc(NC(=O)CSc3ncccn3)c2C#N)C1 (centres unmarked)	-0.25
CC(C)C(=O)N1CCN(c2ccc(NC(=O)c3cccnc3Cl)cc2)CC1	-4.12
Cc1ccc(NC(=O)c2sc3nc4c(cc3c2N)CCC4)cc1	1.15
O=C(Nc1ccn(-c2ccccc2)n1)C12CC3CC(CC(C3)C1)C2	-1.05
COC(=O)c1ccc(-c2ccccc2)s1	-5.81
CN1C(=O)c2ccccc2C(C(=O)NCCN2CCOCC2)C1c1cccs1 (centres unmarked)	-3.27
CC1CCN(CCCNC(=O)c2nn(C)c3c2CSc2ccccc2-3)CC1	1.68
CCOc1ccc(Nc2nc(-c3sc(C)nc3C)cs2)cc1	-2.48
Cc1nn(C)cc1CN(C)C(=O)CC12CC3CC(CC(C3)C1)C2	3.79
COc1cccc(-c2nnc3sc(NC(=O)c4ccc(F)cc4)nn23)c1	-1.72
CC(O)CSc1nc2c(c(=O)[nH]c(=O)n2C)n1Cc1ccccc1 (centres unmarked)	4.3
CC(C)c1nc2sc3c(NCCO)ncnc3c2c2c1COC(C)(C)C2	0.415
O=C(c1nn2c(C(F)(F)F)cc(-c3ccccc3)nc2c1Br)N1CCCCC1	-11
COc1ccccc1/N=C1/C=C(O)CC(C)(C)C1	-0.771
CC(C)n1c(=O)c2oc3ccccc3c2n(CC(=O)NCc2ccccc2)c1=O	1.41
COCCCN(Cc1ccco1)C(=O)c1cc2c(O)nc3ccc(C)cc3c2s1	1.72
COc1ccc(OC)c(NC(=O)COc2ccc(C)cc2Br)c1	-1.38
Cc1ccc(S(=O)(=O)Nc2cc(NS(=O)(=O)c3ccc(C)cc3)c3ccccc3c2O)cc1	6.94
O=S(=O)(Nc1ccc(Cl)c(Cl)c1)c1cc(Cl)ccc1Cl	3.53

SMILES	% Inhibition @ 10 uM [%]
O=C(Nc1ccc(F)cc1)Nc1cccc(Br)c1	1.44
CCOCCCNC(=O)C1CCN(S(=O)(=O)N2CC(C)CC(C)C2)CC1 (centres unmarked)	-2.99
Cc1cc(C)nc(NS(=O)(=O)c2ccc(NC(=O)c3ccc(Br)o3)cc2)n1	4.3
CCCN(CCC)c1ncnc2c1cnn2-c1ccc(C)cc1C	7.48
CCCCOc1ccc(C(=O)NCc2ccc3c(c2)OCO3)cc1	39.3
COc1cccc(-c2nc(CS(=O)(=O)CC(=O)N3CC(C)CC(C)C3)c(C)o2)c1 (centres unmarked)	3.19
O=C(COc1ccc(Br)cc1)N1CCN(CCCc2ccccc2)CC1	5.05
C=C(C)CC(Nc1ccccc1C)c1ccco1 (centres unmarked)	-2.88
CC12CC(c3cc(Br)cc(Br)c3O1)C(C(=O)c1ccccc1)C(=O)N2 (centres unmarked)	-3.1
COC(=O)c1ccccc1NC(c1ccccc1)c1ccc2cccnc2c1O (centres unmarked)	-1.69
N#Cc1c(S)nc2c(c1-c1ccc([N+](=O)[O-])cc1)CCCC2	7.13
O=C(CSc1nc2c(sc3ccccc32)c(=O)n1CCO)NCc1ccco1	7.41
c1csc(-c2nn3c(Cn4cnc5ccccc54)nnc3s2)c1	2.89
CN1C(=O)/C(=C/c2ccc(Cl)cc2)S/C1=N/c1cccc(C(=O)O)c1	1.57
Cc1ccc(S(=O)(=O)NCCC2=CCCCC2)cc1	0.413
O=C1N=C(N2CCOCC2)S/C1=C1\C(=O)Nc2ccc(Br)cc21	-2.29
C=CCOc1ccc(C2c3c(oc4ccccc4c3=O)C(=O)N2c2nncs2)cc1 (centres unmarked)	2.1
C/C(=N\O)c1ccc(-c2ccccc2)cc1	-4.61
Cc1ccc(-c2cc(C(=O)N3CC=C(c4ccccc4)CC3)[nH]n2)cc1C	-3.88
O=C(/C=C/c1ccc(Cl)cc1)NCCN1CCOCC1	-5.16
O=C(NCc1ccccc1)c1cccc(S(=O)(=O)N2CCCCC2)c1	-5.41
CC[C@H](NC(=O)[C@H](Cc1nccn1Cc1ccccc1)NC(=O)c1ccccc1)C(=O)c1nc2ccccc2o1	-3.49
CC1=C(c2ccc(C)cc2)S(=O)(=O)N=C1NC1CCCc2ccccc21 (centres unmarked)	-1.08
